The campaign covered roughly 50,000 compounds. About 800 (1.6%) showed an effect of 50% or more. This is one part of the list.
Molecular target: Bcl-2-like protein 10 (Homo sapiens) (UniProt Q9HD36)
Experiment: Phenotype converters, Bcl-B/TR3 peptide binding displacement, primary biochemical FP (AID 1240);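 also: 0% = Bcl-B with tracer peptide and DMSO and 100% = tracer peptide lacking Bcl-B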
Conditions: GST-Bcl-B / FITC-TR3 peptide fluorescence polarization; stronger effect = higher value; compound at 3.75 mg/L

Sequence of UniProt Q9HD36 (Q9HD36 whole entry, looked up): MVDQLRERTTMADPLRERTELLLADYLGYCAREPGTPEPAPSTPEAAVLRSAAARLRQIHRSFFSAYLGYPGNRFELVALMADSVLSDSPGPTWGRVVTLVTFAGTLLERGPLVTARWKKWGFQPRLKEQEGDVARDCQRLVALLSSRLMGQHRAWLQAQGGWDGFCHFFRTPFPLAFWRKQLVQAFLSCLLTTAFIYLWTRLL

| SMILES | displacement [%] |
| --- | --- |
| Cc1ccc(C)c(NC(=O)c2cc3ccccc3oc2=O)c1 | 13.7 |
| COc1ccc(OC)c(NC(=O)C(C)Oc2ccc(Cl)cc2Cl)c1 (stereo not given) | -5.6 |
| CCC(=O)Nc1ccc2oc(-c3ccc4ccccc4c3)nc2c1 | 30.8 |
| O=c1oc(-c2cccs2)nc2sc3c(c12)CCCC3 | 9.8 |
| COc1cc(C2/C(=C(\O)c3ccc(F)cc3)C(=O)C(=O)N2c2nncs2)ccc1O (stereo not given) | 8.3 |
| O=Cc1cn(CCOc2ccccc2F)c2ccccc12 | -15.9 |
| O=C(/C=C/Nc1ccc(O)cc1)c1ccc(Br)cc1 | 11.6 |
| CC1(C)CC(=O)C2=C(C1)N=C1c3ccccc3C(=O)C1C2c1ccc(Br)cc1 (stereo not given) | 6.5 |
| O=C1NC(=S)N(c2ccccc2)C(=O)/C1=C/c1ccc(-c2ccc([N+](=O)[O-])cc2)o1 | -1.5 |
| CNc1nc(Nc2nc(C)cc(C)n2)nc(OCC(F)(F)F)n1 | 7.2 |
| CCOC(=O)c1cccc(Nc2ncnc3ccc(C)cc23)c1 | 9.2 |
| Cc1ccc(NC(=O)c2cccc(Cl)c2)cc1Cl | 3.2 |
| CC(=O)CC(=O)NC1C2CC3CC(C2)CC1C3 (stereo not given) | 2 |
| CC(/C=N/N1C(=O)CSC1=S)=C\c1ccccc1 | -21.3 |
| COCCOC(=O)C1=C(C)NC2=C(C(=O)CC(C)(C)C2)C1c1ccc(Br)cc1 (stereo not given) | 11.9 |
| NC(=O)C1CCN(C(=O)c2cnn(-c3ccccc3)c2NC(=O)c2cccc(F)c2)CC1 | 5.1 |
| Cc1c(Cl)cccc1NC1C=CS(=O)(=O)C1 (stereo not given) | 14 |
| Cc1cc2nc(-c3cccc(NC(=O)c4ccc(C)c([N+](=O)[O-])c4)c3)oc2cc1C | 5.6 |
| CCOC(=O)C1=C(c2ccccc2)N=C2SCC(=O)N2C1c1ccc(OC)cc1 (stereo not given) | 9.2 |
| COCCCNC(=O)c1ccc(OC)cc1 | -11 |
| CCN(CC)c1ccc(C=Nc2ccc(S(N)(=O)=O)cc2)c(O)c1 | 1.4 |
| CC(=O)C1=C(O)C(=O)N(CC2CCCO2)C1c1ccc(Cl)cc1Cl (stereo not given) | 19.4 |
| Cc1ccc(OCCOc2ccccc2C=O)cc1 | -1.8 |
| COc1ccc(NC(=O)c2ccc(-n3cnnn3)cc2)cc1 | -21.6 |

| SMILES | displacement [%] |
| --- | --- |
| O=C1c2ccccc2NC(c2cccc(O)c2)N1Cc1ccco1 (stereo not given) | 8.5 |
| Cn1ccnc1Sc1ccc([N+](=O)[O-])cc1 | -10.9 |
| COc1ccc(Cl)cc1C(=O)Nc1ccc(N2CCCCC2)c(Cl)c1 | -0.6 |
| COc1ccc(C2C(C(=O)OC(C)C)=C(C)N=c3s/c(=C\c4ccc5c(c4)OCO5)c(=O)n32)cc1 (stereo not given) | 33.9 |
| CN1c2ccccc2-c2ccccc2C12C=Cc1cc([N+](=O)[O-])ccc1O2 (stereo not given) | -2.8 |
| CCOC(=O)c1c(NC(=O)c2cccnc2)sc(C(=O)N(CC)CC)c1C | 4.1 |
| COc1cccc(/C=C2/SC(=S)N(CC(=O)O)C2=O)c1O | 11 |
| Cc1nn(CC(=O)Nc2ccc(Cl)cc2Cl)c(C)c1[N+](=O)[O-] | 10 |
| COc1nc(Nc2ccc(C(C)=O)cc2)nc(OC)n1 | -3.5 |
| COc1ccc(CCNC(=O)/C=C/c2ccco2)cc1OC | 6.9 |
| O=c1nc(N2CCOCC2)nc(N2CCOCC2)[nH]1 | 13.1 |
| c1ccc(OCCCCn2ccnc2)cc1 | -9 |
| Cc1ccc(OCC(=O)N2CCC(C(N)=O)CC2)c(Br)c1 | -11.4 |
| CC(=C\c1ccccc1)/C=C1/SC(=Nc2ccc(F)cc2)NC1=O | -22.2 |
| Cc1c(C(=O)OC(C)C)sc(NC(=O)C2CC2c2ccccc2)c1C#N (stereo not given) | -4.6 |
| O=C(Nc1cccc2ncccc12)c1sc2ccccc2c1Cl | 5.4 |
| O=C(CCNc1ccc([N+](=O)[O-])cc1)c1cccs1 | -12.3 |
| COc1ccc(/C=C2\SC(N3CCC(C)CC3)=NC2=O)cc1 | -8.4 |
| COc1cc([N+](=O)[O-])ccc1N1C(=O)C2C3C=CC(C4CC34)C2C1=O (stereo not given) | 22.4 |
| COc1ccc(N(CC(=O)NC(C)c2ccccc2)S(C)(=O)=O)cc1Cl (stereo not given) | 2.8 |
| CCNc1cc(Nc2ccc(C)cc2)c2c3c(onc13)-c1ccccc1C2=O | 14.1 |
| Cc1ccc(N2C(=O)CC(NCCCN3CCOCC3)C2=O)cc1 (stereo not given) | -1.5 |
| O=[N+]([O-])c1ccc(-c2nnc(-c3ccc(F)cc3)o2)cc1 | 8.4 |
| COC(=O)c1ccc(/C=C2/C(=O)NN(c3ccccc3)C2=O)cc1 | 1.9 |

| SMILES | displacement [%] |
| --- | --- |
| CCOC(=O)c1[nH]c(=O)[nH]c1CN1CCc2ccccc2C1 | -7.3 |
| COc1cc(C(=O)c2cc(Br)ccc2NC(=O)COc2ccc(C)cc2)cc(OC)c1OC | 17.2 |
| COc1ccccc1N(CC(=O)NCC(C)c1ccccc1)S(=O)(=O)c1ccccc1 (stereo not given) | -7.1 |
| Cc1ccc(C23CC4CC(CC(C(=O)Nc5nn[nH]n5)(C4)C2)C3)cc1 | 2.1 |
| Cc1cc([N+](=O)[O-])c2[nH]c(C(=O)N/N=C/c3ccncc3)c(-c3ccccc3)c2c1 | -13.9 |
| O=S(=O)(Nc1ncccc1O)c1ccc(Cl)cc1 | 1.1 |
| CCOc1ccc(NC(=S)NC(NC(=O)OCc2ccccc2)C(Cl)(Cl)Cl)cc1 (stereo not given) | 0.7 |
| O=C(NC(Nc1ccccc1)C(=O)c1ccccc1)c1ccco1 (stereo not given) | -1.7 |
| O=[N+]([O-])c1ccc(N2CCN(S(=O)(=O)c3ccccc3)CC2)c(C(F)(F)F)c1 | 0.7 |
| CCC(Oc1ccccc1)C(=O)Nc1cc(Cl)ccc1C (stereo not given) | -0.1 |
| COc1ccc(NC(=O)c2c(NC(=O)Cc3ccccc3)sc3c2CCC(C)C3)cc1 (stereo not given) | -19.5 |
| COC(=O)c1ccc(Oc2nc(NC(C)C)nc(NC(C)C)n2)cc1 | -0.6 |
| O=C(CSc1cccc2cccnc12)Nc1ccc(/C=C/c2ccccc2)cc1 | 11.7 |
| COc1ccc(/C=C/C(=O)NCCSc2ccccn2)cc1 | 8.7 |
| CC(C)(C)c1cc(C(=O)N/N=C/c2cc(C(C)(C)C)c(O)c(C(C)(C)C)c2)n[nH]1 | -3.4 |
| COc1cc(/C=C2/C(=O)N(c3ccccc3)N=C2C)cc([N+](=O)[O-])c1O | 19.2 |
| Cc1ccc(S(=O)(=O)N(CC(=O)NCC2CCCO2)c2ccc(C(C)C)cc2)cc1 (stereo not given) | 1.2 |
| CC(=O)Oc1cc(C(=O)Nc2ccccc2C(=O)O)cc(C(=O)Nc2ccccc2C(=O)O)c1 | 1.8 |
| O=C(NCC1CCCO1)c1ccc(S(=O)(=O)N2CCOCC2)cc1 (stereo not given) | -7.2 |
| C=CCOC(=O)C1=C(C)NC(=S)NC1c1ccc(OC)cc1 (stereo not given) | 9.6 |
| O=C(Cc1cccs1)NCC1CCCO1 (stereo not given) | 14.5 |
| O=S(=O)(c1ccc(Br)cc1)N1CCN(C/C=C/c2ccccc2)CC1 | -9.6 |

From PubChem BioAssay AID1240 (Sanford-Burnham Center for Chemical Genomics, 2008)
